# In PubChem BioAssay AID330 (DTP/NCI, 2004):
# Toxic doses and inconclusive results are not listed. For part of its entries the source gives two or more results. The other results are left out here. An entry can have further records. Values given together differ, and nothing given here explains why; they may come from other doses, times, organisms or constructs than stated. Signs of the kind (2×) say how often a value occurs here. Numbered stars: 1 amine (or outer) side, 2 acyl side, 3 side chain; on linkers, the order of the positions; unused ones are H or OH. Bridge positions count the residues as written; N and C are the ends. Square brackets hold non-standard residues; d marks the D form. Peptide text beside a SMILES is read from it. I, II: the chains in the order shown. Actinocin(9to1) = Cc1c2oc3c(C)ccc(C(=O)[*:1])c3nc-2c(C(=O)[*:2])c(N)c1=O; aThr = C[C@H](O)[C@H](N)C(=O)O; NMeV = CN[C@H](C(=O)O)C(C)C; Sar = CNCC(=O)O
# Tested on: P388 leukemia ip, CD2F1 mice, survival T/C
# Assay: NCI In Vivo Anticancer Drug Screen. Data for tumor model P388 Leukemia (intraperitoneal) in CD2F1 (CDF1) mice
# Conditions: endpoint: median survival time, higher = longer survival
smiles,measurement,setting,value
Nc1nc(=S)c2ncn(C3OC(CO)C(O)C3O)c2[nH]1 (stereo not given),T/C,"dose: 100.0 mg/kg/injection, schedule: Q01DX005 (ip), vehicle: saline with Tween-80",122 % of control and 162 % of control
COc1cccc2c1C(=O)c1c(O)c3c(c(O)c1C2=O)C[C@@](O)(C(=O)COC(=O)Cc1ccccc1)C[C@@H]3OC1CC(N)C(O)C(C)O1 (stereo not given in full),T/C,"dose: 0.5 mg/kg/injection, schedule: Q01DX009 (ip), vehicle: saline with Tween-80","118 % of control, 158 % of control, 174 % of control"
CC[C@]1(O)C[C@H]2CN(CCc3c([nH]c4ccccc34)[C@@](C(=O)OC)(c3cc4c(cc3OC)N(C=O)[C@H]3[C@@](O)(C(=O)OC)[C@H](OC(C)=O)[C@]5(CC)C=CCN6CC[C@]43[C@@H]65)C2)C1,T/C,"dose: 0.13 mg/kg/injection, schedule: Q04DX003 (ip), vehicle: saline",116 % of control and 162 % of control
same,T/C,"dose: 0.8 mg/kg/injection, schedule: Q04DX003 (ip), vehicle: saline",119 % of control and 182 % of control
O=C(NC1CCC1)OCc1c(COC(=O)NC2CCC2)c(-c2ccc(Cl)c(Cl)c2)n2c1CCC2,T/C,"dose: 50.0 mg/kg/injection, schedule: Q01DX009 (ip), vehicle: distilled water + Tween-80",101 % of control and 155 % of control
Nc1ncn(C2OC(CO)C(O)C2O)c(=O)n1 (stereo not given),T/C,"dose: 6.0 mg/kg/injection, schedule: Q01DX009 (ip), vehicle: saline","92 % of control, 103 % of control, 329 % of control"
N[C@@H](Cc1ccc(N(CCCl)CCCl)cc1)C(=O)O,T/C,"dose: 10.0 mg/kg/injection, schedule: Q01DX005 (ip), vehicle: saline",116 % of control and 187 % of control
COc1cc(NS(C)(=O)=O)ccc1Nc1c2ccccc2nc2ccccc12,T/C,"dose: 2.0 mg/kg/injection, schedule: Q04DX003 (ip), vehicle: other",116 % of control and 153 % of control
"Cc1c2oc3c(C)ccc(C(=O)N[C@@H]4C(=O)N[C@H](C(C)C)C(=O)N5CCC[C@H]5C(=O)N(C)CC(=O)N(C)[C@@H](C(C)C)C(=O)O[C@H]4C)c3nc-2c(C(=O)N[C@@H]2C(=O)N[C@H](C(C)C)C(=O)N3CCC[C@H]3C(=O)N(C)CC(=O)N(C)[C@@H](C(C)C)C(=O)O[C@H]2C)c(N)c1=O (I: [aThr][dV]P[Sar][NMeV] / II: [aThr][dV]P[Sar][NMeV]; ester I:1-I:C, II:1-II:C; linker I:N-II:N via Actinocin(9to1))",T/C,"dose: 0.07 mg/kg/injection, schedule: Q01DX009 (ip), vehicle: water",94 % of control and 194 % of control (2×)
same,T/C,"dose: 0.6 mg/kg/injection, schedule: Q01DX001 (ip), vehicle: water",101 % of control (2×) and 156 % of control
